# Measured values from PubChem BioAssay AID1345082 (National Center for Advancing Translational Sciences (NCATS), 2018).
# Hit rate of the full screen: of about 94,000 compounds, about 4,000 (4.3%) were called active. Inconclusive means that the source gave no clear call. Such entries were picked first, then a sample of the others. Calls come from the whole dose curve; as a rule, active = well fitted inhibition curve with a large enough effect; inconclusive = small, poorly fitted or top-dose-only effect; inactive = no such curve, though single readings can be large or run the other way. Potencies beside an inconclusive call are fits to weak or partial responses and may not hold up.
# Assay: Cytotoxic Profiling in NIH 3T3 Cell Line of Diverse Libraries Using Quantitative High-Throughput Screening; note: nearly all actives have a fitted effect of over 55% in size
# Details: NIH 3T3 viability, CellTiter-Glo ATP luminescence, 48-72 h; series mostly up to 96.7 µM
# Outline: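 Luminescent ATP readout (CellTiter-Glo, 10 min RT) after 48 or 72 hr compound exposure of NIH 3T3 cells seeded at 400 cells/well in 1536-well format; quantitative HTS.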
# Potency is the fitted concentration of half-maximal effect; tags give direction and shape of the fitted curve.
row,Structure (SMILES),Potency
1,CCc1ccc(S(=O)(=O)N2CCCC(Cn3cnc4cccnc43)C2)cc1 (configuration not stated),"inconclusive: 44.7 µM [inhibitor, partial curve, poor fit]"
2,COc1ccccc1N1CCN(C(=O)CCc2conc2-c2cccc(F)c2)CC1,"inconclusive: 70.8 µM [inhibitor, single point]"
3,COc1ccc([C@H]2C[C@@H](O)[C@@H](O)[C@@H]2NCc2cnc3ccccc3c2)cc1,"inconclusive: 112 µM [inhibitor, single point]"
4,O=C(NCc1ccc(Cl)cc1)C1CCN(c2ccnc3ccnn23)CC1,"inconclusive: 11.2 µM [inhibitor, full curve]"
5,O=C1CCN(S(=O)(=O)c2ccccc2)CCCN(C(=O)COc2ccccc2)CCN1,"inconclusive: 70.8 µM [inhibitor, single point]"
6,COc1c(C)cc(NC(=O)c2ccc(CN3CCC(O)CC3)cc2)cc1C,"inconclusive: 50.1 µM [inhibitor, partial curve, poor fit]"
7,O=C(NCCc1ccc(Cl)cc1)c1ccc2nccn2c1,"inconclusive: 100 µM [inhibitor, partial curve]"
8,COc1cc(OC)cc(C(=O)NCC2CCCN(C/C=C/c3ccccc3OC)C2)c1 (configuration not stated),"inconclusive: 50.1 µM [inhibitor, partial curve, poor fit]"
9,CN1Cc2c(cc(N3CCOCC3)nc2-c2cccc(C(F)(F)F)c2)C1=O,active: 5.62 µM
10,CC(=O)Nc1cccc(-c2csc(CN3CCCC(C)(NC(C)=O)C3)c2)c1 (configuration not stated),inactive
11,CCCCCNC(=O)c1cc(-c2ccc(OC)cc2)nc2c1cnn2C,"inconclusive: 31.6 µM [inhibitor, partial curve]"
12,COc1cccc(-c2ccc(CN3CCCC3C(=O)N3CCC(C#N)CC3)cc2)c1 (configuration not stated),"inconclusive: 70.8 µM [inhibitor, single point]"
13,COCCCNC(=O)C1(C)CN(Cc2ccccc2)Cc2ccc(NCC(C)C)nc21 (configuration not stated),"inconclusive: 31.6 µM [inhibitor, full curve]"
14,COCC(=O)N1CCC2(CC1)Nc1ccccc1NC2=O,"inconclusive: 89.1 µM [inhibitor, single point]"
15,CCC(CC)NC(=O)CC1CCCN(c2cnn(CC3CC3)c(=O)c2)C1 (configuration not stated),"inconclusive: 50.1 µM [inhibitor, partial curve, poor fit]"
16,Cc1cc(=O)n(CC(=O)Nc2cccc(C(F)(F)F)c2)c(N2CCN(c3ccccc3)CC2)n1,"inconclusive: 50.1 µM [inhibitor, partial curve, poor fit]"
17,COc1ccc(CCC(=O)N2CCC(N3C(=O)C(O)C34CCCCC4)CC2)cc1 (configuration not stated),inactive
18,Cc1nn(-c2ccc(F)cc2)c(Oc2cccc(F)c2)c1CCC(=O)NC(C)C,"inconclusive: 50.1 µM [inhibitor, partial curve, poor fit]"
19,Cc1cccc(-c2noc([C@@H]3Cc4nc[nH]c4CN3C(=O)c3ccccc3C(=O)O)n2)c1,inactive
20,COc1cc(-c2ccnc(-c3nnc(C)n3Cc3ccncc3)c2)ccn1,"inconclusive: 112 µM [inhibitor, single point]"
21,CC(C)(Oc1nn(CCN2CCOCC2)c2ccccc12)C(=O)NCCOc1ccccc1,"inconclusive: 44.7 µM [inhibitor, partial curve, poor fit]"

row,Structure (SMILES),Potency
1,O=C(Nc1cc(C2CC2)nn1-c1ccccc1)C1CC1,inactive
2,CN1CCCCCC(O)c2cc(C(=O)N3CCN(c4ncccn4)CC3)ccc21 (configuration not stated),"inconclusive: 44.7 µM [inhibitor, partial curve, poor fit]"
3,CCOCc1nc(C2CCCN(C(=O)NCCc3ccccc3)C2)no1 (configuration not stated),inactive
4,Cn1nc(-c2ccncc2)cc1NC(=O)c1ccc(C(F)(F)F)cc1,"inconclusive: 39.8 µM [inhibitor, partial curve, poor fit]"
5,CC(=O)Nc1ccccc1-c1c(C)nn2c1N(CCC(C)C)CCC2,"inconclusive: 56.2 µM [inhibitor, partial curve, poor fit]"
6,CCN1C(=O)CCN(Cc2ccc(C)s2)CC12CCOCC2,"inconclusive: 44.7 µM [inhibitor, partial curve, poor fit]"
7,COc1ccccc1CN1CCN(C(=O)C2CCCN(Cc3cccnc3)CCC(=O)NCC2)CC1 (configuration not stated),inactive
8,CN(C)C[C@@H]1CN(S(C)(=O)=O)C[C@H]1NC(=O)CCC1CCCC1,inactive
9,Cc1ccc(CN2CCCOCCNC(=O)[C@@H]3CCCC[C@@H]32)o1,"inconclusive: 39.8 µM [inhibitor, partial curve, poor fit]"
10,COc1ccc(NC(=O)N2CCCC(Cn3c(C4CC4)nc4cccnc43)C2)cc1Cl (configuration not stated),"inconclusive: 50.1 µM [inhibitor, partial curve, poor fit]"
11,Cc1nn2c(c1-c1ccccc1OCc1ccccc1)N(C(=O)Cc1ccccc1)CCC2,active: 44.7 µM
12,COCCN1C(=O)[C@H]2CN(Cc3cccc(OC)c3)C[C@H]2C1=O,inactive
13,COCCNC(=O)[C@@H]1C[C@H](Oc2ccccc2)CN1C(=O)c1ocnc1C,inactive
14,CC(C)CNC(=O)c1cccc2c1CCN2C(=O)c1ccc(F)cc1,inactive
15,CNC(=O)[C@H]1C[C@H](Oc2ccccc2)CN1Cc1cn(C)c2ccc(OC)cc12,active: 31.6 µM
16,COCc1nc(C2CC(NC(=O)c3cc(Cl)cn3C)C2)cc(=O)[nH]1 (configuration not stated),inactive
17,Cc1ccc(CC(=O)N2CCC(Cc3nc(C(C)C)no3)CC2)cc1,"inconclusive: 44.7 µM [inhibitor, partial curve, poor fit]"
18,CC(=O)N1CCc2nc(-c3ccc(Cl)cc3)nc(-c3ccccc3)c2C1,"inconclusive: 44.7 µM [inhibitor, partial curve, poor fit]"
19,Cc1cc(C)c(CNC(=O)c2cc(-c3ccccc3C)cc3c2OCCN3C(C)C)c(=O)[nH]1,"inconclusive: 70.8 µM [inhibitor, partial curve, poor fit]"
20,Cc1ccc(Nc2ccnc(N3CCC(C(=O)NCCCc4ccccc4)CC3)n2)cc1,active: 12.6 µM
21,O=C1NCCCc2[nH]c(-c3csc(-c4ccccc4)n3)nc21,"inconclusive: 79.4 µM [inhibitor, single point]"
